Test results taken from publication PMC8422164, “A comparison of three mucus-secreting airway cell lines (Calu-3, SPOC1 and UNCN3T) for use as biopharmaceutical models of the nose and lung” (European Journal of Pharmaceutics and Biopharmaceutics, 2021).

How the values were obtained:
SPOC1 cells [1] = experiment: Enhancement of mucin secretion using AMP-PNP (Secretagogue model), ELLA, SPOC1; format: cell-based, rat; settings: for Fold increase in mucin levels: vs baseline
Procedure: Cells cultured on inserts were arbitrarily divided into two groups termed 'low mucus' and 'high mucus'. […] Plates were kept on a shock-absorbing foam pad to prevent inadvertent mechanical stimulation of mucin secretion. […] Washes were stored at 4 °C until mucin secretion could be determined using an ELLA (on the day of treatment). At 10, 20 and 30 min, three further washes were performed and the average mucin content used to establish baseline mucin secretion. […] Each AMP-PNP/TB apical solution was changed (“like for like”) at 10-minute intervals. […] Wells were then washed three times with phosphate buffered saline (PBS) containing 0.05 % v/v Tween, 0.5 % w/v bovine gelatin type B (Sigma Aldrich), and blocked by incubation with PBS containing 1.0 % w/v gelatin at 37 °C for 1 h. […] Wells with samples from UNC[…] cells were incubated with biotinylated-Helix pomatia agglutinin prepared in the blocking solution. These wells were then washed before incubation with HRP-labelled streptavidin. Finally, plates containing samples from all cell lines were washed repeatedly and developed by the addition of substrate solution which consisted of o-phenylene diamine (Sigma […] tablet) prepared according to manufacturer's instructions, for 3 min at room temperature, after which the reaction was terminated by the addition of 20% (v/v) H2SO4. The absorbance at 492 nm was measured using an Ascent MultiskanTM plate reader (Thermo Fisher Scientific). The absorbance of the samples was compared with known mucin standards, purified by two rounds of density gradient ultracentrifugation, as described by […] et al., from the sputum of a volunteer with chronic obstructive pulmonary disease. Ethical approval was obtained from the University of Brighton School of Pharmacy and Biomolecular Sciences Ethics Committee, under reference PABSREC 0509, and informed consent was obtained from the volunteer.

SPOC1 cells [2] = experiment: Mucin secretion (ELLA) in response to inhaled drugs, SPOC1 on Geltrex-coated plastic; format: cell-based, rat
Procedure: Wells were then washed three times with phosphate buffered saline (PBS) containing 0.05 % v/v Tween, 0.5 % w/v bovine gelatin type B (Sigma Aldrich), and blocked by incubation with PBS containing 1.0 % w/v gelatin at 37 °C for 1 h. […] Wells with samples from UNC[…] cells were incubated with biotinylated-Helix pomatia agglutinin prepared in the blocking solution. These wells were then washed before incubation with HRP-labelled streptavidin. Finally, plates containing samples from all cell lines were washed repeatedly and developed by the addition of substrate solution which consisted of o-phenylene diamine (Sigma […] tablet) prepared according to manufacturer's instructions, for 3 min at room temperature, after which the reaction was terminated by the addition of 20% (v/v) H2SO4. The absorbance at 492 nm was measured using an Ascent MultiskanTM plate reader (Thermo Fisher Scientific). The absorbance of the samples was compared with known mucin standards, purified by two rounds of density gradient ultracentrifugation, as described by […] et al., from the sputum of a volunteer with chronic obstructive pulmonary disease. Ethical approval was obtained from the University of Brighton School of Pharmacy and Biomolecular Sciences Ethics Committee, under reference PABSREC 0509, and informed consent was obtained from the volunteer.

SPOC1 cells [3] = experiment: TEER of SPOC1 cells with AMP-PNP
SPOC1 cells [4] = experiment: Cytokine release (ELISA) in response to inhaled drugs, SPOC1; settings: for Effect on IFN-γ release / Effect on TNF-α release / Effect on IL-6 release: SPOC1, drug 5-50 μM, 30 min; for Effect on IL-6 release: salbutamol significant at 50 μM
[5] = SPOC1, drug at 50 μM, compared to controls

SMILES | Effect on IFN-γ release (SPOC1 cells [4]) | Effect on TNF-α release (SPOC1 cells [4]) | Effect on IL-6 release (SPOC1 cells [4]) | Effect on mucin secretion (SPOC1 cells [2]; [5]) | other results
Nc1ncnc2c1ncn2[C@@H]1O[C@H](COP(=O)([O-])OP(=O)([O-])NP(=O)([O-])[O-])[C@@H](O)[C@H]1O.[Li+].[Li+].[Li+].[Li+] [AMP-PNP, adenylyl-imidodiphosphate, tetralithium salt] | – | – | – | – | Fold increase in mucin levels (SPOC1 cells [1]; SPOC1 on Geltrex-coated Transwell-Clear inserts, AMP-PNP 100 μM): 3.5 fold; Mucin level after AMP-PNP (SPOC1 cells [1]; SPOC1 on Geltrex-coated Transwell-Clear inserts, AMP-PNP 100 μM, baseline 1.43 ± 0.33): 5.01 ± 0.40 ng/well; Fold increase in mucin levels (SPOC1 cells [1]; SPOC1 on Transwell-COL inserts, data not shown): 3.0 fold; Mucin level after AMP-PNP (SPOC1 cells [1]; SPOC1 on Transwell-COL inserts, baseline 1.03 ± 0.16): 3.09 ± 0.48 ng/well; Mucin secretion (SPOC1 cells [2]; SPOC1 on Geltrex-coated plastic, AMP-PNP 100 μM, 30 min, control 0.94 ± 0.04): 3.82 ± 0.21 ng/well; Effect upon TEER (SPOC1 cells [3]): no discernible effect
O=S(=O)([O-])[O-].[O]=[V+2] [VOSO4, Vanadium (IV) oxide sulfate] | – | – | – | – | IFN-γ release, fold increase by positive control (SPOC1 cells [4]; SPOC1): 7 fold; TNF-α release, fold between VOSO4 and medium alone (SPOC1 cells [4]; SPOC1): 1.5 fold; TNF-α release (SPOC1 cells [4]; SPOC1, VOSO4 20 μg mL^−1, 30 min, medium alone 29.8 ± 0.5): 45.2 ± 1.6 pg/mL; IFN-γ release (SPOC1 cells [4]; SPOC1, VOSO4 20 μg mL^−1, 30 min, medium alone 43.4 ± 3.8): 308.3 ± 15.9 pg/mL; IL-6 release (SPOC1 cells [4]; SPOC1, VOSO4 20 μg mL^−1, 30 min, untreated 51.0 ± 3.7): 97.7 ± 7.4 pg/mL; IL-6 release, fold that of culture medium alone (SPOC1 cells [4]; SPOC1, positive control): 1.9 fold
CCCC1O[C@@H]2C[C@H]3[C@@H]4CCC5=CC(=O)C=C[C@]5(C)[C@H]4[C@@H](O)C[C@]3(C)[C@]2(C(=O)CO)O1 (stereo partly shown) [budesonide] | No significant increase | No significant increase | No significant increase | – | Effect on mucin secretion (SPOC1 cells [2]; SPOC1, drug 5-50 μM): no effect
CC(C)[N+]1(C)[C@@H]2CC[C@H]1C[C@@H](OC(=O)C(CO)c1ccccc1)C2 (stereo partly shown) [ipratropium, Ipratropium bromide monohydrate] | No significant increase | No significant increase | No significant increase | significantly increased | –
CC(C)(C)NCC(O)c1ccc(O)c(CO)c1 (stereo not shown) [salbutamol, salbutamol sulfate] | No significant increase | No significant increase | dose-dependent increase | significantly increased | –
C[N+]1(C)[C@@H]2C[C@@H](OC(=O)C(O)(c3cccs3)c3cccs3)C[C@H]1[C@@H]1O[C@@H]12 [tiotropium, tiotropium bromide monohydrate] | No significant increase | No significant increase | No significant increase | significantly increased | –

Where a name gives a salt, the structure may show the parent alone.
